From patent publication US8158586B2, “Inhibitors of protein kinases and uses thereof” (priority 2005, dated 2012)
“And” between values parts separate entries of the source, which are not always exact repeats. Identical values can stand only once. For at least one compound, name, drawing or mass did not settle the structure. Some entries repeat one wording, which the source may state once for all of them. Residues, ends and D or L forms follow the SMILES beside them. *: point of attachment. PNA(A) = NCCN(CC(=O)*)C(=O)Cn1cnc2c(N)ncnc21

Key:
STAT-3 = STAT-3 phosphorylation (Ser727, Tyr 705) in IL-6 treated U-251 cells, immunocytochemistry; type: cell-based, human; details: 5 mM loading
[1] = system: PKCα expression in LS180 colon cancer cells; test: Expression of PKCα in LS180 cells, flow cytometry; type: cell-based; details: both cell lines (LS180, H-661)
[2] = system: IMR-32 neuroblastoma cell line; test: Cell death at 24 h after pinocytic loading, IMR32; type: cell-based, human
[3] = system: DU-145 prostate cancer cell line; test: Cell death at 24 h after pinocytic loading, Du145; type: cell-based
PKC isoforms = test: PKC isoform panel, PepTag assay; type: biochemical
[4] = system: LNCap prostate cancer cell line; test: Cell death at 24 h after pinocytic loading, LnCAP; type: cell-based
[5] = system: MRP-1 expression in H-661 NSCLC cells; test: MRP-1 expression in H-661 NSCLC cells, flow cytometry; type: cell-based
[6] = system: T-24 bladder cancer cell line; test: Cell death at 24 h after pinocytic loading, T24; type: cell-based
[7] = system: Pgp expression in H-661 NSCLC cells; test: Pgp expression in H-661 NSCLC cells, flow cytometry; type: cell-based
[8] = system: U-251 glioblastoma cell line; test: Cell death at 24 h after pinocytic loading, U251; type: cell-based, human
[9] = system: LS-180 colon cancer cell line; test: Cell death at 24 h after pinocytic loading, LS180; type: cell-based
LS180 colon cancer cells = test: Rhodamine influx and efflux in LS180 colon cancer cells; type: cell-based; details: exogenous treatment, doxorubicin exposure
Procedure: The amount of rhodamine influx and efflux following treatment of LS180 colon cancer cells and H-661 NSCLC cells with the PKI compounds was also investigated. The measurement of rhodamine efflux and influx is a common procedure that provides a quantitative estimation of the level of multidrug resistance due to typical MDR and non-P-gp MDR. Both exogenous treatment using 5 μg/mL of the PKI compounds provided at the same time as doxorubicin, and endogenous incorporation, in which a single dose of 5 mM was used with the standard pinocytic endocytosis protocol, were investigated.
The MDR-1 pump functions only as an efflux pump, however, it modulates the cell entry of rhodamine (that can diffuse through the membrane). Upon toxicant exposure, rhodamine accumulates in the cells. Ratios of rhodamine fluorescence in doxorubicin exposed versus untreated controls (CT) are lower if the pump is inhibited.

[10] = system: MCF-7 breast cancer cell line; test: Cell death at 24 h after pinocytic loading, MCF-7; type: cell-based
pERK1/2 = pERK1/2 in serum-stimulated IMR-32 neuroblastoma cells, immunofluorescence (indirect MEK1/2); type: cell-based, human; details: 5 mM loading, control stimulated 105.3, control starved 59.5
[11] = system: H-661 non-small cell lung cancer cell line; test: Cell death at 24 h after pinocytic loading, H661; type: cell-based
[12] = system: MDA-MB-231 breast cancer cell line; test: Cell death at 24 h after pinocytic loading, MDA-MB-231; type: cell-based
MDA-MB-231 cells = test: Invasion of MDA-MB-231 cells through Matrigel matrix; type: cell-based
[13] = system: MRP-1 expression in LS180 colon cancer cells; test: MRP-1 expression in LS180 colon cancer cells, flow cytometry; type: cell-based
[14] = system: PKCα expression in H-661 NSCLC cells; test: Expression of PKCα in H-661 cells, flow cytometry; type: cell-based; details: 5 μM
Procedure: The effect of compounds 1 to 10 on doxorubicin-induced expression of PKCα in LS180 colon cancer cells and H-661 NSCLC cells was investigated. Cells were exposed to doxorubicin (50 ng/mL) for 3 days prior to exogenous treatment with the PKI compounds at a concentration of 5 μM. Results were acquired by flow cytometry after labelling of the cells with the PKC-alpha #sc 208 antibody.
The protocol used for fixing the cells for flow cytometry is as follows. A minimum of 1.0×10^6 cells was used in each instance. Cells were trypsinized and spun down at 1,000/5 min at 4° C. All the medium was removed and the cells resuspended in 500 μl of 1×PBS, pH 7.1. The cell suspension was added into 5 mls of 1% paraformaldehyde/PBS on ice and fixed for 15 min on ice. Cells were then centrifuged at 1,000/5 min and resuspended in 10 mls of 1×PBS. Cells were centrifuged again at 1,000/5 min and resuspended in 2 mls of 70% ETOH and kept at −20° C. until needed (up to 1 week). At which time, 2 mls of 1×PBS containing 1% BSA/0.02% NaN3 was added to each tube and the cells were left on ice for 5 min to give the cells time to rehydrate. Cells were then centrifuged at 1,000/5 min and the ETOH/PBS mix removed. The cells were resuspended in 5 mls of 1×PBS and allowed to sit on ice for 5 min. This step was repeated once, then the cells were centrifuged at 1,000/5 min and resuspended in 1 ml of 1×PBS containing 1% BSA/0.02% NaN3 and 5% serum. Blocking was conducted for 30 min at room temperature with inversion every 10 min, then the primary antibody was added directly to each cell tube at the desired concentration and incubated for 1 hr at room temperature inverting every 10 min. Cells were centrifuged at 1,000/5 min, the primary antibody removed and the cells resuspended in 5 mls of 1×PBS. This step was repeated once. Cells were centrifuged at 1,000/5 min and resuspended in 1 ml of 1×PBS w/1% BSA and 0.02% NaN3 (that contains 5% serum) and the secondary antibody was added. Tubes were protected from the light and incubated for 1 hr at room temperature inverting every 10 min. Cells were then centrifuged at 1,000/5 min, the secondary antibody removed and the cells resuspended in 5 mls of 1×PBS. This step was repeated once and then the cells were centrifuged at 1,000/5 min and resuspended in 1 ml of 1×PBS w/1% BSA and 0.02% NaN3 (with the 5% serum added). Tubes were kept on ice until needed for flow cytometry.

[15] = system: Pgp expression in LS180 colon cancer cells; test: Pgp expression in LS180 colon cancer cells, flow cytometry; type: cell-based
[16] = system: SKOV-3 ovarian cancer cell line; test: Cell death at 24 h after pinocytic loading, SKOV-3; type: cell-based
Bcl-2 = test: Bcl2 sublocalization, immunolabelling; type: cell-based

## CC(=O)N[C@@H](CCCCN)C(=O)N[C@@H](CC(C)C)C(=O)N[C@@H](CCCNC(=N)N)C(=O)N[C@@H](CCCNC(=N)N)C(=O)N[C@@H](C)C(=O)N[C@@H](CCCCNC(=O)CN(CCN)C(=O)Cn1cnc2c(N)ncnc21)C(=O)N[C@@H](CC(C)C)C(=O)NCC(=O)N[C@@H](CC(C)C)C(=O)NCC(=O)N[C@@H](CC(=O)O)C(=O)N[C@@H](CC(=O)O)C(N)=O [Compound 8] (Ac-KLRRAK(PNA(A))LGLGDD-NH2)
STAT-3
  inhibition of Tyr phosphorylation of STAT-3: ~50%
STAT-3; pSTAT3 Ser727, control 70.15
  Anti-Serine Antibody FL Density: 77.36
STAT-3; pSTAT3 Tyr 705, control 43
  Anti-Tyrosine Antibody FL Density: 21.11
[1]
  effect on PKCα basal expression (summary): repressive effect
[2]; 5 mM
  Percentage Cell Death at 24 h, IMR32: 9%
[2]; 10 mM
  Percentage Cell Death at 24 h, IMR32: 11%
[3]; 5 mM
  Percentage Cell Death at 24 h, Du145: 28%
[3]; 10 mM
  Percentage Cell Death at 24 h, Du145: 52%
PKC isoforms
  inhibition of PKC isoforms: very potent inhibitors of all the PKCs isoforms except PKC epsilon and zeta
[4]; 5 mM
  Percentage Cell Death at 24 h, LnCAP: 24%
[4]; 10 mM
  Percentage Cell Death at 24 h, LnCAP: 30%
[5]; compound 5 μM
  Cells expressing MRP-1, +Doxorubicin (A): 64.48% and 72.09%
  Cells expressing MRP-1, No Doxorubicin (B): 11.95% and 5.32%
[5]; without doxorubicin
  MRP-1 expression: decreased MRP-1 expression
[6]; 5 mM
  Percentage Cell Death at 24 h, T24: 5%
[6]; 10 mM
  Percentage Cell Death at 24 h, T24: 11%
[7]; compound 5 μM
  Cells expressing Pgp, +Doxorubicin (A): 69.43% and 70.78%
[7]; without doxorubicin
  basal expression of P-gp: decreased the basal expression of P-gp
[8]; 5 mM
  Percentage Cell Death at 24 h, U251: 4%
[8]; 10 mM
  Percentage Cell Death at 24 h, U251: 44%
[9]; 5 mM
  Percentage Cell Death at 24 h, LS180: 21%
[9]; 10 mM
  Percentage Cell Death at 24 h, LS180: 28%
LS180 colon cancer cells
  rhodamine efflux, pump activity: effective in limiting the pump activity
[10]; 5 mM
  Percentage Cell Death at 24 h, MCF-7: 59%
[10]; 10 mM
  Percentage Cell Death at 24 h, MCF-7: 79%
pERK1/2
  pERK1/2 FL Density: 83.9
[11]; 5 mM
  Percentage Cell Death at 24 h, H661: 11%
[11]; 10 mM
  Percentage Cell Death at 24 h, H661: 18%
[12]; 5 mM
  Percentage Cell Death at 24 h, MDA-MB-231: 13%
[12]; 10 mM
  Percentage Cell Death at 24 h, MDA-MB-231: 19%
MDA-MB-231 cells; % invasion in control cells minus % invasion in treated cells
  % Inhibition of Invasion: 1.7%
MDA-MB-231 cells; MDA-MB-231
  % Invasion: 87.6%
  No. Cells Invading Matrigel Insert: 84.3
  No. Cells Migrating through Control Insert: 96.3
[13]; compound 5 μM
  Cells expressing MRP-1, +Doxorubicin (A): 12.5%
  Cells expressing MRP-1, No Doxorubicin (B): 8.9%
  MRP-1 Ratio A/B: 1.40
[13]; without doxorubicin
  basal expression of MRP-1: did not alter the basal expression of MRP-1
[14]
  expression of PKCα, without doxorubicin: moderately reduced PKCα levels
[15]; cells exposed to doxorubicin
  Pgp expression levels: moderate decrease
[15]; compound 5 μM
  Cells expressing Pgp, +Doxorubicin (A): 13.42%
  Cells expressing Pgp, No Doxorubicin (B): 7.2%
  Pgp Ratio A/B: 1.86
[15]; without doxorubicin
  P-gp basal expression: equal or close to basal expression
[16]; 5 mM
  Percentage Cell Death at 24 h, SKOV-3: 12%
[16]; 10 mM
  Percentage Cell Death at 24 h, SKOV-3: 31%
Bcl-2; control 0
  Bcl2 label intensity, Perinuclear: 2
Bcl-2; control 1
  Bcl2 label intensity, Cytoplasmic: 1
Bcl-2; control 2
  Bcl2 label intensity, Nuclear: 2
